# From article PMC10073093
# Target: Recombinant Notch-1 protein (UniProt P46531)
# Test: ELISA
# Conditions: ligand; Species, supplier and limits not stated. Human assumed (mouse Q9QXX0 is possible). Limits are the mature extracellular region from the candidate's features; any Fc carrier omitted. Species, supplier and limits not stated. Human assumed (mouse Q01705 is possible). Limits follow the usual commercial recombinant Notch-1 ectodomain fragment (N-terminal EGF repeats including ligand-binding EGF 11-12),; modification not given
# Sequence of UniProt P46531 (P46531 19-526): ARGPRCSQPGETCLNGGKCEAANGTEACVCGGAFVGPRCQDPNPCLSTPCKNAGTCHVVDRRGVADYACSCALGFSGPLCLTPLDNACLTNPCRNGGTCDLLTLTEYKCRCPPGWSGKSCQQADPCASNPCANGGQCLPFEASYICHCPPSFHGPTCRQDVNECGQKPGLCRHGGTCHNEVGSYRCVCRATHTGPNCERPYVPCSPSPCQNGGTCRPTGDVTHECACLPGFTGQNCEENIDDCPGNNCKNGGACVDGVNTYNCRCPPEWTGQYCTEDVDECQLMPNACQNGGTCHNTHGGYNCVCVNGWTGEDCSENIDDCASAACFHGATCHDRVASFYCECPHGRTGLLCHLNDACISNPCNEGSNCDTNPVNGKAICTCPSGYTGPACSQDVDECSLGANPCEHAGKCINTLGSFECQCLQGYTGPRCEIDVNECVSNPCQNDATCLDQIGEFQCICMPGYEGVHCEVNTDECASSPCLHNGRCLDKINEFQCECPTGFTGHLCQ
substance,measurement,value
"Jagged-1 (a stretch of the chain, no sequence given)",EC50,0.145 µg/mL
same,Kd,1.76 nM
